According to PubChem BioAssay AID1159614 (National Center for Advancing Translational Sciences (NCATS), 2016):
Out of some 45,000 compounds screened, about 65 (0.1%) were called active. Calls follow the shape of the dose curve; as a rule, active = well fitted activation curve with a large enough effect; inconclusive = small, poorly fitted or top-dose-only effect; inactive = no such curve, though single readings can be large or run the other way. The list shows a part of the results.

target: Galactocerebrosidase (Homo sapiens) (UniProt P54803); experiment: A Novel Cell-Based Assay to Identify Small Molecules for B -Galactocerebrosidase; conditions: 145M-Twi-hGALC-G270D cells (Twitcher mouse brain line with human GALC G270D), HMU-beta-Gal fluorescence, 48 h; series mostly up to 57.5 µM; activation: at the top concentration; also: 0% is about no effect; nearly all actives have a fitted effect of over 65% in size
UniProt P54803, sequence (P54803 whole entry, looked up): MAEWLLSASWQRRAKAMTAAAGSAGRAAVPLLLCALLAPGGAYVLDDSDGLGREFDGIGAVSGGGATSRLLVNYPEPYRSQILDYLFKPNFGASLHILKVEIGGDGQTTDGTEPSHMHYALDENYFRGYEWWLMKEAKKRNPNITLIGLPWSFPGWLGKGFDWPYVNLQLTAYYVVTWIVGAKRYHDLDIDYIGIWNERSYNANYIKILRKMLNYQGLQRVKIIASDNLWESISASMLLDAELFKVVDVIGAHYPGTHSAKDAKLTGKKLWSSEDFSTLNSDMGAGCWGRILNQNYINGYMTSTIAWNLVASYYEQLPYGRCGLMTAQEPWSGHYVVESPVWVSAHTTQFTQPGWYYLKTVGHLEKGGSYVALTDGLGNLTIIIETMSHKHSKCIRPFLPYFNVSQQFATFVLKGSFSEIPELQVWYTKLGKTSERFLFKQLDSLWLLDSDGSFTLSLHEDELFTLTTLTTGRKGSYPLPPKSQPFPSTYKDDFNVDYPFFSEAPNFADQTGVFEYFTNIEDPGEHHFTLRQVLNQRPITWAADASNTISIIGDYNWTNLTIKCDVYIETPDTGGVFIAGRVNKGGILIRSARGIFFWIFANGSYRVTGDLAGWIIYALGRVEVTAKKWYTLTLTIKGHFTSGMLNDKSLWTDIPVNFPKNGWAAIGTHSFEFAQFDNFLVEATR
How it was run: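 Fluorogenic HMU-b-Gal hydrolysis (0.1 mM final, pH 5.2 citrate-phosphate with 1 mg/mL sodium taurocholate; carbonate stop buffer) measures mutant GALC activity after compound treatment of live 145M-Twi Twitcher brain cells stably carrying human GALC-G270D, with wild-type GALC line alongside; activation sought.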

Structure (SMILES) | activation
COc1cc(C(=O)Nc2ccc(NC(=O)c3ccc(Br)cc3)cc2)cc(OC)c1OC | inactive: -3.34%
Cc1ccc(-n2ccnc(NCCc3ccc(S(N)(=O)=O)cc3)c2=O)cc1C | inactive: 1.41%
Cc1oc(-c2cccc(Cl)c2)nc1CSc1nc2ncccc2[nH]1 | inactive: -0.932%
CCC1CCCCN1C(=O)CSc1nc2c([nH]c3ccccc32)c(=O)n1-c1cccc(OC)c1 (stereo not drawn) | inactive: -27.7%
CCOc1ccc(C(=O)Nc2ccc(S(=O)(=O)N3CCCCC3c3cccnc3)cc2)cc1 (stereo not drawn) | inactive: -19.2%
CCc1cccc(C)c1NC(=O)Cn1c(=O)cc(C(F)(F)F)c2c(C)nn(C)c21 | inactive: -8.93%
Cc1cccc(N2CCN(c3nc4ccccc4c(=O)n3-c3ccc(Cl)cc3)CC2)c1C | inactive: -12.8%
Cc1ccc(C)c(S(=O)(=O)NCC(c2ccco2)S(=O)(=O)c2ccc(F)cc2)c1 (stereo not drawn) | inactive: -28.3%
CCOc1ccc(CCNC(=O)c2cnc3sc(N4CCOCC4)nn3c2=O)cc1 | inactive: -8.94%
COc1ccc(Cn2ccnc2SCC(=O)NCc2ccccc2)cc1 | inactive: -15.5%
CCC1CCCCN1C(=O)c1nn(-c2ccc(C)cc2)c(=O)c2c1c1ccccc1n2C (stereo not drawn) | inactive: -21.1%
COc1ccccc1-c1ccnc2[nH]n(-c3ccccc3)c(=O)c12 | inactive: -16.7%
O=C(NCc1cccs1)C1CCN(C(=O)N2CCOc3ccccc32)CC1 | inactive: -11.7%
O=C(CSc1nc2c([nH]c3ccccc32)c(=O)n1-c1ccccc1)c1ccccc1 | inactive: -3.67%
O=C(Nc1c(-c2ccccc2)nc2ccccn12)c1ccc(Br)cc1 | inactive: -7.76%
Cc1ccc(N2CCN(C(=O)c3ccc4c(Cl)c5c(nc4c3)CCCC5)CC2)c(C)c1 | inactive: -5.07%
O=C(Nc1ccc(F)cc1F)c1c2c(nc3ccccc13)C(=O)N(C1CCCCC1)C2 | inactive: -15.3%
Cc1noc(C)c1S(=O)(=O)N(CC(=O)NCc1ccccc1Cl)c1ccc(C(C)C)cc1 | inactive: -14.6%
COc1ccc(-c2nn(CC(=O)Nc3ccccc3F)c3c2cnc2ccc(F)cc23)cc1 | inactive: -19.6%
COc1ccc(C2C(=O)N(C3CCCCC3)CC(=O)N2Cc2ccccc2Cl)cc1OC (stereo not drawn) | inactive: -7.68%
CCOC(=O)c1cc(OC(=O)c2ccc(Cl)cc2)n(-c2ccccc2)n1 | inactive: -12%
Cc1ccc(N(CC(=O)N2CCN(c3ccc(Cl)cc3)CC2)S(=O)(=O)c2c(C)noc2C)cc1 | inactive: -35.9%
COc1ccc(CNC(=O)Cn2ncn3nc(-c4cccs4)cc3c2=O)cc1 | inactive: -27.8%
CCN(CC)CCNC(=O)c1cc(Cl)c(N)cc1OC | inactive: -12.8%

Structure (SMILES) | activation
Cc1ccc(-c2nc(S(=O)(=O)c3ccc(C)cc3)c(N3CCN(c4ccccc4)CC3)o2)cc1 | inactive: 10.8%
Cc1ccc(C)c(N2CCN(CCCNC(=O)Cn3ncc4c([nH]c5ccccc54)c3=O)CC2)c1 | inactive: -6.28%
COc1ccc(N2CCN(S(=O)(=O)CCNC(=O)c3ccc(C(F)(F)F)cc3)CC2)cc1 | inactive: -16.5%
CCc1ccc(-n2nc(C)c3c(C(=O)NCCc4ccc(OC)c(OC)c4)cc(C)nc32)cc1 | inactive: -0.501%
CCCC(=O)O[C@]1(C(=O)CCl)[C@@H](C)C[C@H]2[C@@H]3CCC4=CC(=O)C=C[C@]4(C)[C@@]3(F)C(=O)C[C@@]21C | inactive: -19.1%
CCCCCn1c(=O)[nH]c2cc(C(=O)NCc3ccc(OC)cc3)ccc2c1=O | inactive: -8.51%
CCOC(=O)c1ccc(NC(=O)CCS(=O)(=O)c2ccc3c(c2)oc(=O)n3C)cc1 | inactive: -9.4%
CCOc1ccc2ccccc2c1C(=O)N[C@@H]1C(=O)N2[C@@H]1SC(C)(C)[C@@H]2C(=O)O | inactive: -17.9%
Cc1ccc(Cl)cc1N1CCN(S(=O)(=O)c2ccc3[nH]c4c(c3c2)CCCC4)CC1 | inactive: -13.5%
COc1ccccc1NC(=O)CN1C(=O)c2cccc3cccc1c23 | inactive: -6.89%
Cc1cccc(N2CCN(C(=O)C3CCN(S(=O)(=O)c4cn(C)cn4)CC3)CC2)c1C | inactive: -9.14%
COc1ccccc1N(CC(=O)Nc1ccccc1F)S(C)(=O)=O | inactive: -21.9%
Cc1cccc(CN2C(=O)CC(c3ccc(Cl)cc3)c3c(C)nn(-c4nc(C)cc(C)n4)c32)c1 (stereo not drawn) | inactive: -9.37%
CCCCN(CCCC)CCNC(=O)CN1C(=O)CSc2ccc(S(=O)(=O)N3CCCCC3)cc21 | inactive: -13.1%
CCCNc1nc(NCc2ccccc2OC)c2cnn(C)c2n1 | inactive: -8.9%
CCN(CCCNC(=O)c1cc2c(=O)[nH]c3ccc(C)cc3c2s1)c1ccc(C)cc1 | inactive: -23.9%
COc1ccc(C2NC(=O)c3c(sc4c3CCN(C)C4)N2)cc1O (stereo not drawn) | inactive: -8.69%
CCc1ccc(NC(=O)C(CC)n2nnc(C(=O)OC)c2C(=O)OC)cc1 (stereo not drawn) | inactive: -31.2%
CCOc1ccc(-n2nc3cc(C)c(NC(=O)CC)cc3n2)cc1 | inactive: -22.6%
CN(C)C/C=C(/c1ccc(Br)cc1)c1cccnc1 | inactive: -8.25%
CCC(CO)Nc1ncnc2c1cnn2-c1ccc(C)cc1 (stereo not drawn) | inactive: -8.7%
CCOc1ccccc1CNC(=O)c1cnc2sc(N3CCCC3)nn2c1=O | inactive: -0.344%
CCOCCCn1c(SCC(=O)Nc2cccc(OC)c2)nc2ccccc2c1=O | inactive: 3.15%
COc1ccccc1NC(=O)C1CCN(S(=O)(=O)c2ccc3c(c2)oc(=O)n3C)CC1 | inactive: -10.7%
